PMC6919601, “Identification of Plasmodium dipeptidyl aminopeptidase allosteric inhibitors by high throughput screening” (PLoS ONE, 2019)
In all, about 110,000 compounds went through this assay and about 230 (0.21%) showed an effect of 50% or more. The list shows a part of the results.

These compounds were tested against DPAP1 (Plasmodium falciparum, UniProt Q8IIJ9) (assay: primary screen, percent inhibition; read by cleavage of a fluorogenic dipeptide substrate; higher = more effect of the substance).
DPAP1, sequence (Q8IIJ9 whole entry, looked up): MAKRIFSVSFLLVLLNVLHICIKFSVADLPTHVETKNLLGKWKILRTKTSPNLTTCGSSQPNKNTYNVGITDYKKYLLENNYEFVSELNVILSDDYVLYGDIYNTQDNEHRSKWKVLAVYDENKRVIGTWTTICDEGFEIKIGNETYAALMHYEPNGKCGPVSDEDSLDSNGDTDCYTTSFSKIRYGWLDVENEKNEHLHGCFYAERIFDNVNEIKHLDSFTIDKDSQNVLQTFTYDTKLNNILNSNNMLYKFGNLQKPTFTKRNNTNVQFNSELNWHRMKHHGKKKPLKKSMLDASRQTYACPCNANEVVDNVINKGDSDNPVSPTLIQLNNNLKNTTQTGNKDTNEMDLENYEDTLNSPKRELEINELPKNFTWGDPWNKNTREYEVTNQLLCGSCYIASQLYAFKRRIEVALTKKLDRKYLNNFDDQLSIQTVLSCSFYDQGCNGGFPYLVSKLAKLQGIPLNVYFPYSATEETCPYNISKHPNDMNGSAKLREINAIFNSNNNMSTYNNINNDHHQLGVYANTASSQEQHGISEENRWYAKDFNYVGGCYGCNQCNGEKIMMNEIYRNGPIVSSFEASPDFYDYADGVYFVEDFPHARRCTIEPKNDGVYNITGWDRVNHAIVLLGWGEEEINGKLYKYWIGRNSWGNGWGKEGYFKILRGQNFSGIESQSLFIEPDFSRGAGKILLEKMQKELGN
Parameters: species or system P. falciparum D10 trophozoite lysates; single well
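Also: 30 min substrate incubation versus DMSO and 10 µM JCP410 controls.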

| Structure (SMILES) | % Inhibition @ 10 uM |
| --- | --- |
| CC(=O)c1cccc(NC(=O)c2onc3c2CCCC3)c1 | -1.04% |
| CCN(CC)CCNC(=O)Cn1ncc2c3ccccc3n(Cc3ccccc3F)c2c1=O | 3.4% |
| CCc1nnc(NC(=O)Cc2noc3ccc(C)cc23)s1 | -3.49% |
| COCc1nnc(NC(=O)c2ccc(OC)cc2OC)s1 | 1.91% |
| CCOC(=O)c1c(C)[nH]c(C)c1S(=O)(=O)N(C)CC(=O)Nc1nccs1 | -5.72% |
| CCOc1ccc(C2Oc3c(OC)cccc3C3CC(c4ccccc4O)=NN32)cc1OC (centres unmarked) | 0.0719% |
| Cn1c2c(c3cc(C4CCCCC4)ccc31)CCC/C2=N\O | -6.07% |
| CC(C)(C)c1cc(O)cc(=O)n1-c1ccccc1 | -0.463% |
| CC(C)CCNC(=O)c1cccn1-c1nnc(N2CCCCCC2)s1 | -5.15% |
| COc1cc2c(cc1OC)C(C)N(C(=O)c1ccccc1Cl)CC2 (centres unmarked) | -1.06% |
| COc1ccc(Cc2c(Cl)ncnc2Cl)cc1 | -3.14% |
| CCOC(=O)N1CCC(Nc2nc(N3CCOCC3)nc(N3CCOCC3)n2)CC1 | 0.315% |
| CCc1ccc(OCC(=O)N(Cc2ccco2)Cc2ccc(C)o2)cc1 | -1.07% |
| CCCNC(=O)CSc1cn(CC(=O)N2CCCC2)c2ccccc12 | 5.05% |
| CCOc1cc(C2C(C#N)=C(N)Oc3ncnc(O)c32)ccc1OCCN1CCOCC1 (centres unmarked) | 2.38% |
| Cc1oc2ncnc(N3CCOCC3)c2c1C(=O)N(C)Cc1ccco1 | 4.76% |
| Cc1ccc(-n2nc3c(=O)n(CC(=O)NCCc4ccccc4Cl)nc(C)c3c2C)cc1 | -12.8% |
| COc1ccc(C(=O)NCc2cn3ccc(C)cc3n2)cc1OC | -3.51% |
| Brc1ccccc1CN1CCN(C2CCN(Cc3ccccc3)CC2)CC1 | -4.43% |
| CC1CC(C)CN(CCCNC(=O)C2CCCN(c3ncnc4c3nc3n4CCCCC3)C2)C1 (centres unmarked) | 3.54% |
| CC(C)(C)NC(=O)CC1Sc2ccccc2NC1=O (centres unmarked) | -8.41% |
| NC(=O)C1CCN(CC2CCCCC2)CC1 | -3.42% |
| COC(=O)c1ccc(/C=C2\C=C(c3ccc(Cl)cc3)OC2=O)cc1 | 3.72% |
| COc1ccc(CNc2cccc(SC)c2)c(OC)c1 | -1.08% |
| CCOC(=O)C1=C(N)OC2=C(C(=O)CC(C)(C)C2)C1c1ccc(C)cc1C (centres unmarked) | -4.35% |
| CC(=O)Nc1ccc(NC(=O)c2ccc([N+](=O)[O-])cc2)cc1 | -4.49% |

| Structure (SMILES) | % Inhibition @ 10 uM |
| --- | --- |
| COCCNC(=O)CSc1c2c(nc3ccc(Cl)cc13)CCCC2 | -8.9% |
| C=CCc1cccc2cc(C(=O)Nc3ccc(C(=O)O)cc3)c(=O)oc12 | 0.247% |
| Cc1oncc1C(=O)Nc1cccc2ccccc12 | -4.66% |
| COc1ccc(-c2cc3c(=O)n(CC(=O)N4CCOCC4)ncn3n2)cc1 | -2.85% |
| CCOC(=O)c1cnc2c(C)cc(Cl)cc2c1NCCN(C)C | 5.37% |
| O=C(O)c1nc(-c2ccccc2)[nH]c1C(=O)O | -1.29% |
| CN1CCN(Cc2ccc([N+](=O)[O-])o2)CC1 | 3.1% |
| Oc1ccc(CN2CCN(Cc3ccccc3)CC2)cc1 | 4.04% |
| O=C(Nc1cccnc1Cl)c1cc2ccc3cccnc3c2[nH]1 | 2.77% |
| CSCCN1CCN(C(=O)CN2CCCC2=O)CC1 | -1.17% |
| O=C1c2cccc([N+](=O)[O-])c2C(=O)N1Cc1ccccc1 | 5.54% |
| COc1ccc(C=C2C(=O)NC(=O)NC2=O)cc1OCc1ccc(Cl)cc1Cl | -6.2% |
| COc1ccc(CN2CCN(Cc3cc(OC)c(OC)cc3OC)CC2)cc1Br | -11.6% |
| COCCCNC(=O)CSc1nc2ccsc2c(=O)n1CCc1ccc(Cl)cc1 | 6.81% |
| Cc1sc2c(c1C)c(=O)n(CCc1ccccc1)c(=O)n2Cc1cc(=O)n2cc(Cl)ccc2n1 | 9.43% |
| COc1cc(O)ccc1C1CC(=O)Nc2c1c(=O)nc(SCc1cccc(C)c1)n2C (centres unmarked) | 2.25% |
| O=C(c1cnn2c(C(F)(F)F)cc(-c3cccs3)nc12)N1CCOCC1 | -0.519% |
| CC(C)OC(=O)c1c2c(n3cc4ccccc4cc13)C(=O)c1ccccc1C2=O | -1.18% |
| COc1ccc(NC(=O)c2c(F)c(F)c(C(=O)Nc3ccc(OC)cc3)c(F)c2F)cc1 | -2.87% |
| CCC(O)c1nc2ccccc2n1CCOc1ccccc1OC (centres unmarked) | 5.2% |
| CCCCN(CCNC(=O)c1nn(C)c2c1CS(=O)(=O)c1ccccc1-2)Cc1ccco1 | -6.34% |
| O=C(O)c1ccc2c(c1)C1C=CCC1C(C(=O)O)N2 (centres unmarked) | 28.2% |
| Cc1ccc2nc(-c3ccc(NC(=O)CN(c4ccc(F)cc4)S(C)(=O)=O)cc3)sc2c1 | -2.67% |
| CCn1ncc(CN(C)C(=O)c2cc3nc(-c4ccc(C)c(C)c4)cc(C(F)(F)F)n3n2)c1C | 2.32% |
| Cc1ccc(C)c(S(=O)(=O)NC(C)C(=O)Nc2ccccc2F)c1 (centres unmarked) | 3.37% |
| O=C(OCCc1ccccc1)c1ccc(-c2ccccc2)cc1 | -0.969% |

| Structure (SMILES) | % Inhibition @ 10 uM |
| --- | --- |
| O=C(CCSc1ccccc1)NCCc1ccccc1 | -4.68% |
| O=C(NCc1ccco1)c1ccc(-n2cnc3cccnc32)cc1 | 3.45% |
| CCOc1ccccc1NC(=O)Nc1ccccc1 | -0.414% |
| COC(=O)c1c(NC(=O)c2cccnc2)sc(C(=O)Nc2ccc(C)cc2C)c1C | 1.39% |
| CC(=O)Nc1ccc(NC(=O)c2csc3ccccc23)cc1 | -12% |
| N#CC1=C(N)Oc2[nH]nc(-c3ccccc3)c2C1c1ccccc1C(F)(F)F (centres unmarked) | -3.19% |
| COCCN1C(=O)c2oc3cc(C)c(C)cc3c(=O)c2C1c1ccc(F)cc1 (centres unmarked) | -1.11% |
| O=C1NC(=O)C(=Cc2cccc(F)c2)C(=O)N1 | -0.239% |
| COc1ccc(-n2cccc2/C=C2/C(=N)N3C(=NC2=O)SN=C3S(C)(=O)=O)cc1Cl | -5.22% |
| C=CCOc1c(Br)cc(C2C(C#N)=C(N)OC3=C2C(=O)CCC3)cc1OC (centres unmarked) | 4.61% |
| COc1ccc(OC)c(N2C(=O)CC(Cc3ccc(C)cc3)C2=O)c1 (centres unmarked) | 3.09% |
| N#Cc1c2ncnc(O)c2c2n1CCC2 | -1.69% |
| O=C(Nc1nc2ccc(Br)cc2s1)c1c(O)nc2c(c1O)CCCC2 | 4.35% |
| Cc1nnc(SCC(=O)N(C)C2CCCCC2)s1 | 2.29% |
| Cc1cc2oc(C(=O)N3CCN(C)CC3)c(C)c2cc1C | -1.36% |
| O=C(Cc1noc2ccccc12)N1CCCCC1c1cccnc1 (centres unmarked) | 10.8% |
| COc1ccc(C2=NN(S(C)(=O)=O)C(c3cccs3)C2)cc1 (centres unmarked) | 0.381% |
| COc1cccc(C=C2C(=O)c3ccccc3C2=O)c1OC(C)C | -1.6% |
| COCCNC(=O)Cn1nnc2sc3c(c2c1=O)CCCC3 | 0.758% |
| CC(C)C(NC(=O)c1ccc(C23CC4CC(CC(C4)C2)C3)cc1)C(=O)NCc1cccnc1 (centres unmarked) | -1.73% |
| COc1ccccc1NC1=C(Cl)C(=O)N(c2ccc(C)cc2C)C1=O | -0.413% |
| Cc1c(C(=O)Nc2ccccc2)cccc1[N+](=O)[O-] | -2.6% |
| O=C(COc1ccc(Cl)cc1Cl)Nc1cccc(Cl)c1 | -7.49% |
| O=C(c1ccc(CNS(=O)(=O)c2cccc(Cl)c2)cc1)N1CCN(c2ccccc2F)CC1 | -3.41% |
| O=C(O)c1ccccc1C(=O)Nc1ccc(S(=O)(=O)N2CCCC2)cc1 | -3.85% |
| CC1CC(N(C(=O)C2CC2)c2ccccc2)c2ccccc2N1C(=O)C1CC1 (centres unmarked) | -1.36% |

| Structure (SMILES) | % Inhibition @ 10 uM |
| --- | --- |
| O=C1C(Cl)=C(Nc2ccc(F)cc2)C(=O)N1Cc1ccccc1 | -0.305% |
| C=CCn1c(Oc2ccc(C=O)cc2OCC)nc2c1c(=O)n(C)c(=O)n2C | 0.708% |
| CC(=O)NC1=NC(=O)/C(=C/c2ccccc2)N1C | -3.26% |
| Cc1nnc(C)c2c(C)n(NC(=O)c3ccncc3)c(C)c12 | 0.884% |
| Cc1ccccc1Cn1c(CCNC(=O)c2ccco2)nc2ccccc21 | 0.366% |
| FC(F)(F)c1nc(NCc2cccnc2)nc2c1CCCCC2 | -5.67% |
| COC(=O)c1conc1-c1cccs1 | -2.48% |
| COc1ccccc1CN1C(=O)CN(C2CCCCC2)C(=O)C1c1ccc(OC(C)C)c(OC)c1 (centres unmarked) | 2.9% |
| Cc1ccc(CNC(=O)Cc2c(C)c3ccc(O)c(C)c3oc2=O)cc1 | -2.57% |
| CCO/C(O)=C1/C(C)=Nc2ncnn2C1c1cccc(OC)c1OC (centres unmarked) | -5.19% |
| O=C(/C=C/c1ccccc1)NCCOC(=O)Nc1ccccc1 | -1.96% |
| CCSc1nc(O)c(CC)c(=O)n1-c1ccccc1 | -0.833% |
| COc1ccc(CC(=O)Nc2c(C)cccc2C)cc1 | -2.03% |
| Cc1ccc(-c2ccc(S(=O)(=O)NCC3CCCO3)cc2)cc1 (centres unmarked) | -7.83% |
| COCCCNC(=O)c1cc(Sc2ccc(C)cc2)nc2ccccc12 | -2.9% |
| CS(=O)(=O)N(CC(=O)Nc1cccc(Br)c1)Cc1ccccc1 | 3.57% |
| COc1cc(N)c2nc(OCc3cccc(Cl)c3)ccc2c1 | 1.52% |
| COc1cccc2c1OC1(C)CC2C(S(=O)(=O)c2ccc(Cl)cc2)C(=O)N1C (centres unmarked) | -2.45% |
| Cc1ccc(S(=O)(=O)N(CC(=O)N2CCCCC2)C2CCCCC2)cc1 | -5.58% |
| CCc1ccc(CNC(=O)c2ccc3c(c2)ncn3C2CCCC2)cc1 | -6.88% |
| CCNc1c(NC(=O)c2ccc(OCC)c(OCC)c2)c(=O)oc2ccccc12 | -2.23% |
| COc1ccc(-c2nnc(SCC(=O)NC(C)c3ccccc3)o2)cc1 (centres unmarked) | 3.94% |
| CCc1ccccc1NC(=O)c1ccc([N+](=O)[O-])cc1 | -6.82% |
